# Reference: PubChem BioAssay AID488969 (Vanderbilt High Throughput Screening Facility, 2010)
# In all, about 110,000 compounds were measured (“z-score”: median about -0.1, highest 2% from about 2 on). The list shows a part of the results. Active and inactive are the calls of the source.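 How the source made its calls: active means z-score in the third read window above 3 or below -3; inactive means the rest.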
# Target: Metabotropic glutamate receptor 8 (Rattus norvegicus) (UniProt P70579)
# Experiment: rat mGluR8 modulators via GIRK flux, primary screen, cell-based, thallium flux, HTS (AID 488969)
# Conditions: HEK293 rat mGluR8, GIRK (G protein-gated inwardly rectifying potassium channel) thallium flux, FluoZin2; at 10 µM; stronger effect = higher value; submaximal glutamate (EC20) added with thallium
# Chain of UniProt P70579 (P70579 whole entry, looked up): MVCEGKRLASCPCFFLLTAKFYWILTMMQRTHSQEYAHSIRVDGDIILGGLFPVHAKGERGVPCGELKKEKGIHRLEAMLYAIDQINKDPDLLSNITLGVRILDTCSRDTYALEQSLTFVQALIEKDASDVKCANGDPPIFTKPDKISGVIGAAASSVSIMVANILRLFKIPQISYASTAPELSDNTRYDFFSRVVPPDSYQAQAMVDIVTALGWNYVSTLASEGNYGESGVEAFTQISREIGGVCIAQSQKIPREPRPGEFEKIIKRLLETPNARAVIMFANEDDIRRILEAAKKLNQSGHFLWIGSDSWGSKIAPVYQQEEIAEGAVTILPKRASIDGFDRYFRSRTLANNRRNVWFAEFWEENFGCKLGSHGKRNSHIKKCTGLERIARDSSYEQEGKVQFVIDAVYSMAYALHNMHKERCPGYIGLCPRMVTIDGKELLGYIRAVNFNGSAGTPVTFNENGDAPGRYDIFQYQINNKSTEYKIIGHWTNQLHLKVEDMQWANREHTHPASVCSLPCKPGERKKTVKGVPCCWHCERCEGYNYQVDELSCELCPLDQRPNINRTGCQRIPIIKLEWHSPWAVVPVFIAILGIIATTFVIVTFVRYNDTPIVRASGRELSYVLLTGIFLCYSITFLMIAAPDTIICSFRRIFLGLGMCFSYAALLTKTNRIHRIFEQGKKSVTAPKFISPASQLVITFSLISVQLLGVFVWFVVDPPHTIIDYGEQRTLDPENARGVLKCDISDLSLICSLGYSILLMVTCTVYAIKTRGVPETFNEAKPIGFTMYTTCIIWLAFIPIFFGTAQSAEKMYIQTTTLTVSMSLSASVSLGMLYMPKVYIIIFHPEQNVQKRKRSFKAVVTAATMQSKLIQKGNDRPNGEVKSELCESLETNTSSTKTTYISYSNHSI
row,Structure (SMILES),z-score
1,CCCCN(CCCC)C(=O)c1cc(Cl)ccc1[N+](=O)[O-],-0.418
2,CCOC(=O)C(NC(=O)c1ccccc1Cl)(Nc1ccc(C(F)(F)F)cc1)C(F)(F)F (configuration not stated),-1.39
3,Cc1ccc(C(=O)N2CC(=O)Nc3ccc(F)cc3C2c2ccccc2)cc1[N+](=O)[O-] (configuration not stated),-0.229
4,O=C(COc1ccccc1)N/N=C/c1ccc(O[C@@H]2O[C@H](CO)[C@@H](O)[C@H](O)[C@H]2O)cc1,0.0169
5,CC1C/C(=N/NC(=O)c2cccc(F)c2)c2ccc(O)cc2C1 (configuration not stated),-0.137
6,COc1ccc(C2C(C#N)=C(N)OC3=C2C(=O)CC(C)(C)C3)cc1Cn1nc(C)c([N+](=O)[O-])c1C (configuration not stated),-0.191
7,O=C(COC(=O)C1Cc2ccccc2CN1C(=O)c1ccccc1)Nc1ccc(SC(F)F)cc1 (configuration not stated),-0.205
8,O=C(/C=C/c1ccc(Cl)cc1)NCc1ccco1,-0.0471
9,Cc1ccc(OCC(=O)N2CCc3ccccc32)cc1,-0.113
10,CC(C)(C)OC(=O)N/N=C\c1ccc(OC(=O)c2cccs2)cc1,-0.465
11,CCCOCC1CC2(CC(C)(c3csc(N)n3)OC2=O)C(=O)O1 (configuration not stated),0.21
12,CCCOn1c(-n2nc(C)cc2C)nc2ccccc2c1=O,0.0266
13,CC1CCN(CC(=O)Nc2cccc(C(=O)Nc3cccc(C(F)(F)F)c3)c2)CC1,0.153
14,CCCc1ccc(C(=O)NNC(=O)c2ccc(Cl)cc2)cc1,0.194
15,COc1ccc(N2CCN(c3oc(Cc4ccccc4)nc3C#N)CC2)cc1,0.0944
16,CCCCOCCCn1cnc2c([nH]c3cc(OC)ccc32)c1=O,0.132
17,Cc1ccc(N2C(S)=C(C#N)C(=O)NC23CCCCC3)cc1,-0.224
18,CCc1c(C)nc2c(C#N)c(C)[nH]n2c1=O,-0.653
19,CCCCN(C)CCCNC(=O)C1CC(=O)N(Cc2ccc(OC)cc2)C1 (configuration not stated),0.757
20,CCn1c(=O)n(CC(=O)NCc2ccco2)c(=O)c2ccccc21,0.656
21,COC(=O)c1cccc(S(=O)(=O)N2CCC(C)CC2)c1,-0.157
22,Cc1cccc(NC(=O)CSc2nc3ccccc3o2)c1,0.469
23,COc1ccc(CC(=O)NCc2cccs2)cc1OC,-0.413

row,Structure (SMILES),z-score
1,O=[N+]([O-])c1ccc(-c2csc(N3CCc4ccccc4C3)n2)cc1,-0.0911
2,COc1ccc(OCC(O)CN2CCN(c3ncccn3)CC2)cc1 (configuration not stated),0.164
3,CCc1nnc(NC(=O)CC(CN(C)S(=O)(=O)c2ccccc2)c2ccccc2)s1 (configuration not stated),-0.278
4,CCc1cc(C(=O)OC)c(NC(=O)c2cc(Br)cs2)s1,-0.143
5,CC1(C)C(=O)C2(CCCCC2)C(=O)OC1c1cccn1-c1ccc([N+](=O)[O-])cc1 (configuration not stated),-0.14
6,Cc1cnc(NC(=O)COc2cccc3c2OC(C)(C)C3)s1,0.713
7,Cc1cc(C)cc(-c2nnc(SCC(=O)c3ccc4c(c3)OCCO4)o2)c1,-0.266
8,CS(=O)(=O)N(CC(=O)N1CCN(c2cccc(Cl)c2)CC1)C1CCCCC1,-0.185
9,CCCC(=O)c1ccc(N2CCCCCC2)c(F)c1,0.339
10,O=C(c1ccccc1)N1CCN(C2CC3CCC2C3)CC1 (configuration not stated),-0.439
11,O=C1[C@H]2[C@@H](C(=O)N1c1cc(Cl)cc(Cl)c1)[C@]1(C(=O)Nc3ccccc31)N1CCC[C@@H]21,-0.354
12,COCCn1c(SCC(=O)Nc2cc(C)on2)nnc1-c1c[nH]c2ccccc12,-0.41
13,COc1ccc(C(=O)N2CCSC2=S)cc1OC,0.0858
14,CCCC(=O)Nc1cccc(-c2cn3ccsc3n2)c1,0.345
15,Cc1ccc(S(=O)(=O)N2CCN(C(=O)CCC(=O)NC3CCCc4ccccc43)CC2)cc1 (configuration not stated),-0.0922
16,O=C(N/C(=C\c1ccco1)C(=O)N1CCCC1)c1cccs1,-0.372
17,Cc1onc(-c2ccccc2Cl)c1C(=O)Nc1ccccc1,-0.373
18,CCOc1ccc(N/C=C/C(=O)c2ccc(OC)cc2)c([N+](=O)[O-])c1,0.427
19,COc1ccc(/C=C2\CCCC3C2=NN(C(=O)c2scnc2C)C3c2ccc(OC)c(OC)c2)cc1OC (configuration not stated),-0.0857
20,O=C(c1ccccc1)N1CCN(C(=O)N2CCOCC2)CC1,-0.0151
21,C=CCNc1nc2c3ccccc3n(C(C)=O)c2s1,0.0275
22,COc1ccc(CC(=O)N2CCN(C(=O)Cc3ccc(OC)cc3)CC2)cc1,-0.234
23,O=C(COC(=O)CCCSc1nc2ccccc2[nH]1)Nc1cccc(F)c1,-0.826

row,Structure (SMILES),z-score
1,CCN1C(=O)/C(=C/c2ccc(C)o2)N(C)C1=S,-0.0274
2,Cc1cc(NC(=O)NC(=O)c2cccc(OC(F)(F)C(F)F)c2)n[nH]1,-0.211
3,COc1cc2cc(CN(CCO)S(=O)(=O)c3ccccc3)c(=O)[nH]c2cc1OC,-0.115
4,NC1=NC2(CCCCC2)N=C(Nc2ccc(Br)cc2)N1,0.148
5,CCCOc1ccc(N2CC(C(=O)Nc3ccccc3C(=O)NCc3ccco3)CC2=O)cc1 (configuration not stated),-2.48
6,CS(=O)(=O)N(CC(=O)Nc1ccc2c(c1)OCO2)Cc1ccc(Cl)cc1,0.287
7,CC(=O)Nc1cc(C(F)(F)F)ccc1Oc1cccc(Br)c1,-0.653
8,COc1ccccc1/C=C/C=N/NC(=O)CN1CCN(S(=O)(=O)c2ccc(C)cc2)CC1,-0.279
9,CCCn1nnnc1NC(=O)CSc1ccc(Cl)cc1,0.464
10,COc1cc(CNCCc2ccccc2F)ccc1OCc1ccc(Cl)nc1,0.878
11,O=C(/C=C/c1ccccc1)NC(=S)Nc1ccc(N2CCOCC2)c(Cl)c1,-0.103
12,O=c1c(C(c2ccccc2)c2c(O)nc3n(c2=O)CCCS3)c(O)nc2n1CCCS2,-0.0703
13,Cc1ccc(OCC(O)Cn2c(=N)n(CCN3CCCCC3)c3ccccc32)cc1 (configuration not stated),active: 4.9
14,COCCn1c(-c2cccs2)nc2c(c(=O)c3ccccc3n2C)c1=O,-0.58
15,COc1ccc(C2C(C#N)=C(SCC(=O)Nc3ccc(C)cc3)NC3=C2C(=O)CC(C)(C)C3)cc1 (configuration not stated),0.0491
16,O=C(Nc1ccn(Cc2ccccc2)n1)c1cccc(Cn2cc([N+](=O)[O-])cn2)c1,-0.557
17,COc1cc(/C=C2/S/C(=N/S(=O)(=O)c3ccccc3)NC2=O)c([N+](=O)[O-])cc1OC,-1.39
18,O=C(Oc1ccc(C(=S)N2CCOCC2)cc1)c1ccc(Br)cc1,-0.171
19,O=C(Nc1cccc(F)c1)/C(=C\c1cccnc1)NC(=O)c1cccs1,0.873
20,CC1(C)CSC(=NCCc2ccccc2)N1C(=O)c1ccc(C#N)cc1,-0.484
21,COc1ccc(/C=N/Nc2nnc(Cc3ccc(OC)c(OC)c3)c(=O)[nH]2)cc1,-0.268
